Results taken from PubChem BioAssay AID624296 (National Center for Advancing Translational Sciences (NCATS), 2012).
Among all 350,000 compounds or so, about 9,900 (2.8%) were called active. Inconclusive results, whose numbers are uncertain, are shown with a selection of clear calls. The call rests on the fitted dose curve; in most records, active means well fitted activation curve with a large enough effect; inconclusive means small, poorly fitted or top-dose-only effect; inactive means no such curve, though single readings can be large or run the other way. No potency is given beside an inconclusive call; the fits are too rough.

Assay: A quantitative high throughput screen for small molecules that induce DNA re-replication in MCF 10a normal breast cells. Further: nearly all actives have a fitted effect of over 50% in size. On activity, positive = re-replication: % of control where 0% means no effect.
Details: MCF 10A DNA re-replication, Hoechst nuclear intensity, 48 h; activity, positive = re-replication: at 46.1 µM (top of the series)
Potency means the concentration at half of the fitted maximal effect; tags describe the fitted curve by direction and shape.

Row | Compound | Potency | activity, positive = re-replication
1 | COc1ccc(N=Nc2c(C)n[nH]c2C)cc1 | inconclusive [activator, single point] | –
2 | CC(C)C(NC(=O)c1ccccc1F)C(=O)OCC(=O)c1ccc(F)cc1 (centres undefined) | inconclusive [activator, full curve, poor fit] | –
3 | Cc1ccc(CS(=O)(=O)c2ncc(Cl)c(C(=O)Nc3ccc(OC(F)F)cc3)n2)cc1 | active: 7.31 µM | –
4 | COc1cc(NC(=O)CSc2nc(=O)n(CCCN3CCOCC3)c3c2CCC3)cc(OC)c1 | – | inactive: -3.41%
5 | Nc1nc(Cl)cc(-c2ccccc2)n1 | inconclusive [activator, partial curve, poor fit] | –
6 | Cc1cccc(C)c1N1C(=O)C(Cl)=C(N2CCCC2)C1=O | inconclusive [activator, single point] | –
7 | Cn1ccnc1-c1ccc(-c2nccn2C)cc1 | – | inactive: 16.4%
8 | COc1ccccc1C=NN1C(=O)CSC1=S | – | inactive: 9.61%
9 | O=C(N[C@H]1CCC(=O)N([C@H](CSc2ccccc2)Cc2ccccc2)CC1)OCc1ccccc1 | inconclusive [activator, single point] | –
10 | COc1ccccc1CCNC(=O)C1CCN(c2nnc(C)c3c(C)n(-c4ccc(C)cc4)nc23)CC1 | inconclusive [activator, single point] | –
11 | CCCCOc1ccc(S(=O)(=O)N2CCCCCC2)cc1 | inconclusive [activator, single point] | –
12 | Cc1ccc(Nc2c(-c3ccc(C)o3)nc3cnccn23)cc1 | inconclusive [activator, partial curve, poor fit] | –
13 | O=[N+]([O-])c1cccc(OCCN2CCC(Cc3ccccc3)CC2)c1 | inconclusive [activator, single point] | –
14 | CN(CC(=O)Nc1ccccc1Sc1ccccc1)C1CCCCC1 | inconclusive [activator, single point] | –
15 | COc1ccccc1N1CCN(/N=C/C(Cl)=C/c2ccccc2)CC1 | inconclusive [activator, partial curve, poor fit] | –
16 | COc1ccc(C2c3[nH]c4ccccc4c3CCN2C(=O)c2ccc(=O)n(C)n2)c(F)c1 (centres undefined) | – | inactive: -15%
17 | Cc1cccc2sc(NC(=O)CSc3nnnn3C)nc12 | – | inactive: 18.4%
18 | COc1ccc(-c2ccc(OC(=O)NC3CCS(=O)(=O)C3)cc2)cc1 (centres undefined) | inconclusive [activator, partial curve, poor fit] | –
19 | CCCOc1ccc(CNC(=O)C2CCN(C(=O)N3CCOc4ccccc43)CC2)cc1 | – | inactive: 3.13%
20 | CCCCCCCCCC(=O)N[C@@H]1c2cc(OC)c(OC)cc2C[C@H]1O | – | inactive: 52.6%
21 | O=C(CSCc1cnn(-c2ccccc2)c1-n1cccc1)N1CCN(Cc2ccccc2)CC1 | inconclusive [activator, single point] | –
22 | COC(=O)C1=C(C)N(Cc2ccccc2)C(=NCc2ccc(OC)cc2)N[C@H]1c1ccccc1 | inconclusive [activator, partial curve, poor fit] | –
23 | NNC(=S)NC1CCCCCCCCCCC1 | inconclusive [activator, partial curve, poor fit] | –

Row | Compound | Potency | activity, positive = re-replication
24 | CCCn1nnc(NC(=O)/C=C/c2ccc(C(C)C)cc2)n1 | inconclusive [activator, single point] | –
25 | COc1cc(C(=O)Nc2ccc(Cl)c([N+](=O)[O-])c2)cc(OC)c1OC | inconclusive [activator, partial curve] | –
26 | Brc1ccc(C2Nc3cccc4cccc(c34)N2)cc1 | – | inactive: -23.9%
27 | O=C(COC(=O)c1cc(S(=O)(=O)N2CCOCC2)ccc1F)c1ccc[nH]1 | inconclusive [activator, partial curve, poor fit] | –
28 | COCCn1c(=O)[nH]c2cc(C(=O)N3CCN(c4cccc(C)c4C)CC3)ccc2c1=O | inconclusive [activator, partial curve, poor fit] | –
29 | COc1ccc(NC(=S)NC(=O)/C=C/c2ccccc2)cc1 | – | inactive: -0.563%
30 | CC(=O)n1cc(N(C(=O)CCl)c2ccc(Cl)cc2)c2ccccc21 | inconclusive [activator, partial curve, poor fit] | –
31 | O=C(Nc1ccc2c(c1)Cc1ccccc1-2)c1ccco1 | inconclusive [activator, full curve, poor fit] | –
32 | O=C1Nc2cc(C(=O)NCCCN3CCOCC3)ccc2S/C1=C/c1cccc(Cl)c1 | active: 16.4 µM | –
33 | Cc1ccc(NC(=O)Cn2nc(C(=O)O)c3ccccc3c2=O)cc1S(=O)(=O)N1CCOCC1 | – | inactive: -4.85%
34 | O=C(c1ccccn1)N(Cc1ccco1)C1(C(=O)NC2CCCCC2)CCCCC1 | – | inactive: 7.24%
35 | COc1cccc(CNC(=O)C2CCC(CNS(=O)(=O)c3cccc4nsnc34)CC2)c1 (centres undefined) | – | inactive: 3.14%
36 | Cc1cccc(C)c1NC(=O)c1ccc(OCc2c(C)noc2C)cc1 | inconclusive [activator, single point] | –
37 | CCN1CCN(C(=O)CCc2nnc3ccc(N4CCN(c5cccc(OC)c5)CC4)nn23)CC1 | – | inactive: 0.261%
38 | Cc1ccccc1N=Cc1cc2c(cc1O)OC(N)=C(C#N)C2c1ccccc1 (centres undefined) | active: 18.4 µM | –
39 | CCOC(=O)C1(Cc2ccc(Cl)cc2)CCN(C(=O)CCc2cnccn2)CC1 | – | inactive: -3.82%
40 | Cc1ccc(NC(=O)NC(=O)c2ccccc2)cc1F | inconclusive [activator, single point] | –
41 | CCN(CC)CC#CCC(C)(c1ccccc1)c1ccccc1 | inconclusive [activator, partial curve, poor fit] | –
42 | N#CC1=C(N)Oc2cc(N)ccc2C1c1ccccc1Cl (centres undefined) | inconclusive [activator, single point] | –
43 | COc1cccc(N2CCN(CC(=O)NC3=Nc4ccccc4N=C(C)C3c3ccccc3)CC2)c1 (centres undefined) | inconclusive [activator, partial curve, poor fit] | –
44 | c1ccc(-n2ncc3c(NCCN4CCCCC4)ncnc32)cc1 | inconclusive [activator, partial curve, poor fit] | –
45 | CCC(=O)N1CCc2cc(S(=O)(=O)CCC(=O)NCCc3ccccc3)ccc21 | – | inactive: 23.7%
46 | COc1ccccc1N(CC(=O)Nc1cccnc1)S(C)(=O)=O | inconclusive [activator, full curve, poor fit] | –

Row | Compound | Potency | activity, positive = re-replication
47 | Cc1ccc(SCc2ccc(C(=O)NCc3cccnc3)cc2)cc1 | – | inactive: 14.5%
48 | c1ccc(Oc2cccc(OCCCn3cncn3)c2)cc1 | inconclusive [activator, full curve, poor fit] | –
49 | Cc1ccc(OCCn2ccnc2)c(C)c1 | inconclusive [activator, single point] | –
50 | CCc1ccc2c(c1)c(N=NC1=NC(=O)CS1)c(O)n2CC | – | inactive: 10.5%
51 | COc1cccc(-c2ccc(-c3noc(-c4cccs4)n3)c(OC)n2)c1 | inconclusive [activator, partial curve, poor fit] | –
52 | CCC1Sc2ccc(S(=O)(=O)CCC(=O)NCc3ccco3)cc2NC1=O (centres undefined) | inconclusive [activator, single point] | –
53 | O=C(COC(=O)c1ccccc1F)Nc1ccc(S(=O)(=O)N2CCOCC2)cc1 | – | inactive: 8.24%
54 | Cc1occc1-c1nnc(SCC(=O)N2CCN(c3ccccc3F)CC2)n1C | inconclusive [activator, partial curve, poor fit] | –
55 | Cc1ccc(N2C(=O)c3ccccc3C2C(=O)c2cc(C)ccc2O)cc1 (centres undefined) | inconclusive [activator, partial curve, poor fit] | –
56 | Cc1cc(OCC(=O)NCCCn2ccnc2)c2c(C)cc(=O)oc2c1 | inconclusive [activator, partial curve, poor fit] | –
57 | Clc1ccccc1CSC1=NCCN1 | – | inactive: 13%
58 | COC(=O)c1cc(=O)n(CCc2ccccc2F)c(=Nc2ccc(F)c(Cl)c2)s1 | inconclusive [activator, single point] | –
59 | C[C@H](CO)N1C[C@H](C)[C@@H](CN(C)C(=O)Nc2ccc3c(c2)OCO3)Oc2c(cccc2N(C)C)C1=O | inconclusive [activator, partial curve, poor fit] | –
60 | Cc1cc(C)c2cc(C#N)c(SCC(=O)NCc3ccco3)nc2c1 | inconclusive [activator, partial curve, poor fit] | –
61 | Cc1ccccc1C(=O)N1CCC2CC1c1cc(-c3ccc(F)cc3)ccc12 (centres undefined) | inconclusive [activator, single point] | –
62 | CCOC(=O)c1c(NC(=O)CN2C(=O)NC3(CCCCCC3)C2=O)sc(C)c1-c1ccc(C)cc1 | inconclusive [activator, partial curve] | –
63 | CCc1ccc(C)[n+](CC(=O)c2cccs2)c1 | – | inconclusive: 18.2% [activator]
64 | Cc1ccc(Nc2nc(Nc3ccc(C)cc3)nc(SC3=NCCS3)n2)cc1 | inconclusive [activator, single point] | –
65 | OCCCNc1ncnc2sc(-c3ccccc3)cc12 | – | inactive: 12.7%
66 | COC(=O)c1ccc(NC(=S)Nc2ccc3ccccc3c2)cc1 | inconclusive [activator, partial curve, poor fit] | –
67 | CC1(C)Cc2c(c(=S)nc(-c3ccccc3)n2CCCN2CCOCC2)CO1 | – | inactive: 15.1%
68 | CCCCOC(=O)C1C2C=C[C@]3(CN(CCCOC)C(=O)[C@H]13)O2 (some centres undefined) | – | inactive: -7.36%
69 | CCC(C)C1Nc2ccc(C(=O)NCCc3ccc(OC)c(OC)c3)cc2NC1=O (centres undefined) | inconclusive [activator, partial curve, poor fit] | –
